# Data reported in the BET-seq Pho4 binding data (Le et al. 2018).
# Some of the results follow. Values were computed here from the reads of four pooled replicates and scatter widely.
# Target: T1, Pho4 (S. cerevisiae) (UniProt P07270)
# T1 sequence: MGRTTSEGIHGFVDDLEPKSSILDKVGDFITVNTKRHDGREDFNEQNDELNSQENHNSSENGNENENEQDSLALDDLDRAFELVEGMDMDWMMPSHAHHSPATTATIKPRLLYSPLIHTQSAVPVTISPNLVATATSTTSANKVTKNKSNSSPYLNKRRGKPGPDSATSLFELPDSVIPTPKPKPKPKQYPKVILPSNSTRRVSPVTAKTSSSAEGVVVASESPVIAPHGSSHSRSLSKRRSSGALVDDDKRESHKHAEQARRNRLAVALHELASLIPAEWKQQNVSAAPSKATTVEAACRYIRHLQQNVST
# Assay: relative binding free energy (BET-seq); higher = weaker binding
# Conditions: reference: library average
row,Sequence,relative binding free energy [kcal/mol]
1,CGTGGCACGTGGTACG,-0.27
2,GATTTCACGTGTTGGG,0.39
3,CTTTGCACGTGCGGAG,-0.04
4,ATAGTCACGTGGCATT,-0.03
5,AAGTGCACGTGGTAGA,-0.07
6,TTGGACACGTGGTGGC,0.1
7,ATTTGCACGTGGGTGT,-0.13
8,TAGGACACGTGCGGTG,-0.03
9,AGGTGCACGTGTCTTT,-0.18
10,AAGGGCACGTGAGCGC,0.13
11,GAAATCACGTGGGAGT,0.13
12,TTTCTCACGTGGGGTG,0.04
13,TAGGTCACGTGAAGAG,0.23
14,TCATTCACGTGTAGAG,0.34
15,TAAGTCACGTGTCTTG,0.08
16,AGGATCACGTGCAGGG,0.07
17,ATGTTCACGTGTGTTC,0.15
18,TTGGACACGTGCGGGA,0.08
19,CTTGACACGTGGGTAG,-0.14
20,TATAGCACGTGCGTTT,-0.11
21,CAAGTCACGTGAGTTG,0.29
22,GAAGACACGTGCTGGT,0.16
23,GAAGGCACGTGTGTAA,-0.06

row,Sequence,relative binding free energy [kcal/mol]
1,GCGAGCACGTGTGTAT,0.01
2,TGTTTCACGTGAAGGA,0.44
3,TCTATCACGTGTGAAT,0.26
4,GCTGACACGTGAGGGT,0.13
5,ATGCTCACGTGTTGGT,0.05
6,GTATGCACGTGCGCGT,-0.24
7,TGGGACACGTGTTTTT,0.17
8,TTTTTCACGTGGATGA,0.29
9,AGTTACACGTGCGGTC,0.1
10,TATGCCACGTGGTAGT,-0.08
11,GTGACCACGTGTGAGT,0.15
12,CGAAGCACGTGAGGGA,0.19
13,TTCTTCACGTGCGTGT,0.28
14,CATTGCACGTGGTTGG,-0.08
15,GTCTGCACGTGGTGTT,-0.08
16,GGTGACACGTGCATTT,0.03
17,ATAGACACGTGGTGTT,-0.08
18,ATGTGCACGTGTGTAA,0
19,GTGAACACGTGATTGT,0.05
20,GAGAACACGTGGGCGG,-0.07
21,TGCGGCACGTGCCTGG,-0.09
22,AGCCGCACGTGTTGGG,-0.04
23,AGGTTCACGTGTATCG,0.15

row,Sequence,relative binding free energy [kcal/mol]
1,TAGTCCACGTGAGGTG,0.28
2,ATGGTCACGTGGTTTC,0.1
3,TTAGTCACGTGGCAAA,0.12
4,TTAATCACGTGAGTTC,0.23
5,TGACGCACGTGGGTTA,-0.18
6,TTTTTCACGTGAGTAC,0.34
7,GAGGTCACGTGGGAAC,0.23
8,GGTAACACGTGTGAGT,0.1
9,TTGAACACGTGTTTAG,-0.02
10,AGTAGCACGTGAAACG,0.36
11,AGGGGCACGTGTGGCA,-0.02
12,TGGCGCACGTGGGAGC,-0.24
13,GCGATCACGTGTGTTT,0.26
14,GTTTTCACGTGAAGAG,0.33
15,GAAGTCACGTGGGTTA,0.03
16,CAGGGCACGTGGTTAT,-0.15
17,GATTGCACGTGGTAAG,0.06
18,TTTCGCACGTGTGGGG,0.04
19,AAGGGCACGTGAGGAG,0.09
20,ATAAACACGTGTGTAG,-0.02
21,AGAGACACGTGGGATA,-0.12
22,CAGCGCACGTGGGTGA,-0.09
23,TTGAGCACGTGGCATG,-0.14

row,Sequence,relative binding free energy [kcal/mol]
1,TTAGACACGTGCTTTG,-0.08
2,GGGTTCACGTGCTATT,0.28
3,TCTGTCACGTGGGTGT,-0.09
4,TGCTGCACGTGGTGTC,-0.05
5,AGAGACACGTGCGTGG,-0.02
6,AGGCGCACGTGTTGGA,-0.06
7,ATGAGCACGTGGGGCT,-0.33
8,AATTGCACGTGTGTGA,0.06
9,TAATTCACGTGTATTC,0.36
10,AGGAGCACGTGGGTTC,-0.15
11,AGGTGCACGTGGGCTG,-0.2
12,GTTGGCACGTGTGAGC,0.08
13,GGGGTCACGTGGATGA,0.18
14,CGGAGCACGTGGTGCT,-0.06
15,TGAAGCACGTGTTTTT,0.03
16,AGGAGCACGTGTGCTT,0.02
17,AGAGGCACGTGTTGTG,-0.13
18,TTTCCCACGTGAGGTT,0.26
19,GATGTCACGTGTGGTT,0.17
20,ATCATCACGTGGTTTG,0.09
21,ATGGCCACGTGCGGAG,-0.1
22,TGATACACGTGGTAAT,0.02
23,CTGGACACGTGGGAAG,-0.03

row,Sequence,relative binding free energy [kcal/mol]
1,GTGGGCACGTGACGGT,0.14
2,GTGTCCACGTGTGTGC,0.07
3,GCAAGCACGTGAGGGT,0.21
4,GGCCTCACGTGGGGTT,0.16
5,TTATCCACGTGTCGGT,0.1
6,CTCGTCACGTGGTGTA,-0.05
7,TGCAGCACGTGATAGT,0.12
8,CGAGTCACGTGAGGTA,0.17
9,AGTGTCACGTGTGAGG,0.1
10,TGGGACACGTGGGAGG,0
11,AAAGACACGTGTTGTT,0.07
12,ACTTACACGTGTATGG,0.15
13,TCGTTCACGTGCGGTT,0.24
14,GTGTTCACGTGTTTTG,0.47
15,GGCGTCACGTGAATTG,0.27
16,TATCACACGTGAGGGT,0.22
17,TAGTGCACGTGCTCGG,-0.13
18,AGGTGCACGTGCGTTC,0.01
19,TTTTTCACGTGATGCT,0.28
20,TAGGACACGTGGGCAG,-0.13
21,TGCGGCACGTGTAGGG,-0.14
22,CGTGACACGTGGTGAA,0.08
23,GTTAACACGTGAAAGT,0.47
